The target of assay [1] is T1, FLAG-BAG5 (mouse) (UniProt Q8CI32).
T1 sequence: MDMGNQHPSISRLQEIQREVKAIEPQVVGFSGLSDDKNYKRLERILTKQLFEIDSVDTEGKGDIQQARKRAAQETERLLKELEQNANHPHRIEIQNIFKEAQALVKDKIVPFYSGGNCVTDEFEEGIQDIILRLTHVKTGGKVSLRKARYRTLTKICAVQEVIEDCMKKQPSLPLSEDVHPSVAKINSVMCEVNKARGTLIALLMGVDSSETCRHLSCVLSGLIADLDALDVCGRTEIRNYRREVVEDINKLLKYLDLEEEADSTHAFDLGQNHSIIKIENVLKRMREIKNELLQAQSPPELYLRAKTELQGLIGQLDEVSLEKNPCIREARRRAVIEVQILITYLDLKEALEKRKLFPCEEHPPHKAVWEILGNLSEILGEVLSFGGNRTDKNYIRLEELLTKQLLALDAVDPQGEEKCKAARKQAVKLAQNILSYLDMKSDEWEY
Description: co-IP; HEK293T cells co-transfected with FLAG- and MYC-tagged mouse constructs, lysate, Western blot.

The chains behind the UniProt entries cited, without tags or fusion partners. Where a name states a change or a piece, a line headed by the entry shows the natural chain unless it says otherwise. A line that says so, or that is headed by a name, gives the form on record, which may keep a tag or linker.
UniProt P63017: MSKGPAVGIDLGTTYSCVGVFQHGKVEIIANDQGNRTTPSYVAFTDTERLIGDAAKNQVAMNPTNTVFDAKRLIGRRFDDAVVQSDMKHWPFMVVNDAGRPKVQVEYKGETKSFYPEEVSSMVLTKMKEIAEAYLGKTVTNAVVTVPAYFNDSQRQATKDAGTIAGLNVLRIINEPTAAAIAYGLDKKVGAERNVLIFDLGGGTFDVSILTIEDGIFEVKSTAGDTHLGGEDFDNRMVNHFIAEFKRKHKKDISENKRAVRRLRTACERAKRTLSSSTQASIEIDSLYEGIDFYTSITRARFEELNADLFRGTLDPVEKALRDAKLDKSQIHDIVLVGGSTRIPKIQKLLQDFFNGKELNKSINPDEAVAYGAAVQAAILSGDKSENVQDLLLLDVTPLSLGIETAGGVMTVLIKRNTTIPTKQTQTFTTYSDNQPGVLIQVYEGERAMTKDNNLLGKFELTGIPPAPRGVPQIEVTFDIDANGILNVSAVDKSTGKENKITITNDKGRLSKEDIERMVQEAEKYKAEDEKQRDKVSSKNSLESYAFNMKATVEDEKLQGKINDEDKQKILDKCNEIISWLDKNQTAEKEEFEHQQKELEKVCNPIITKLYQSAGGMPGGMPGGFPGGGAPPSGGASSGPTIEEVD
nucleotide-binding domain mutant of pCAG-STREP-HSPA8 (deletion of 2–386 amino acids) (P63017, form named): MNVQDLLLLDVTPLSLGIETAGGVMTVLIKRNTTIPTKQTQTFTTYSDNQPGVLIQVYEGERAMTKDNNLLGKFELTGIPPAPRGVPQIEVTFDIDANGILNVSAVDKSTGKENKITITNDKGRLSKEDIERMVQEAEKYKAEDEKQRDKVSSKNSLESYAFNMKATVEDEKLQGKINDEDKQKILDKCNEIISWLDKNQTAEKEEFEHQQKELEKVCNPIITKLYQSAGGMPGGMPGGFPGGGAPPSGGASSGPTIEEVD
UniProt P11142: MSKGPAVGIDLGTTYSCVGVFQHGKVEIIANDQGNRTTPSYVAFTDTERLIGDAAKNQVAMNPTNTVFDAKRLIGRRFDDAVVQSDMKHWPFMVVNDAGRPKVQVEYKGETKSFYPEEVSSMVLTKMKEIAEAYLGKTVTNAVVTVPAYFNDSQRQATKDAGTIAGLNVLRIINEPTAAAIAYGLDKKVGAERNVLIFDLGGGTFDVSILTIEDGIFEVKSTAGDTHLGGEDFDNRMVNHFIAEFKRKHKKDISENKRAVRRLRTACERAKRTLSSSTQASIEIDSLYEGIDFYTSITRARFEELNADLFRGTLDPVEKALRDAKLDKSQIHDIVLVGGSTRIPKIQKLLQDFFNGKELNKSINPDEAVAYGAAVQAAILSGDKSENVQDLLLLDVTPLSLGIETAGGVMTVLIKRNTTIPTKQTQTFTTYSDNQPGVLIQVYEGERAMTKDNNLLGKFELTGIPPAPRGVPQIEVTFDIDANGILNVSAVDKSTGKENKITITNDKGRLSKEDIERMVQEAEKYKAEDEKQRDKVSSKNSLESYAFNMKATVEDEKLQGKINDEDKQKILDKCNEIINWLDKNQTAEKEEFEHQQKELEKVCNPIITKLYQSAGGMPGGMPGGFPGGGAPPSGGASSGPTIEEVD

Assay [2] has as its target MYC-HSPA8 (mouse) (UniProt P63017). The description is as above.
Assay [3] concerns the target HSPA8 (in HeLa cells) (human (endogenous in HeLa)) (UniProt P11142). In words: co-IP; HSPA8 IP from WT HeLa cells co-transfected with pCAG-BAG5 (or pCAG) and pCAG-SPATA6, Western blot; IgG as negative control. A general note: A western blot detects proteins with antibodies after separation by electrophoresis.
Assay [4] has the same target. Description: condition: only in the absence of BAG5 (BAG5 KO HeLa cells); co-IP; HSPA8 IP from BAG5 KO HeLa cells co-transfected with pCAG-BAG5 (or pCAG) and pCAG-SPATA6, Western blot; IgG as negative control.
Assay [5] has as its target HSPA8 (heat shock cognate 70 kDa protein) (mouse (endogenous in mouse testis)) (UniProt P63017). Description: condition: only in the absence of BAG5 (Bag5 KO testes); co-IP; HSPA8 IP from Bag5 KO mouse testis lysate, Western blot; IgG as negative control.
Assay [6] shares this target. Description: co-IP; endogenous proteins from WT mouse testis lysate (20 mM HEPES, 150 mM NaCl, 0.5% NP-40, 1 mM DTT, pH 7.3), protein A/G magnetic beads, Western blot; IgG as negative control; in Fig. 8B lysates also treated with ATP (HSPA8-SPATA6 binding reduced).
The target in assay [7] is STREP-HSPA8 (mouse) (UniProt P63017). Description: co-IP; HEK293F cells co-transfected with a STREP-tagged bait (HSPA8, its NBD deletion, or BAG5) and the untagged partners from pCAG; lysate without added nucleotide (for STREP-BAG5 also with ATP: weakened).
In assay [8] the target is nucleotide-binding domain mutant of pCAG-STREP-HSPA8 (deletion of 2–386 amino acids) (mouse) (UniProt P63017). The assay is described as above.

No constants are given. Whether binding was seen depends on the method and setting. Binding seen in cells or lysates may run through a third protein. Some results given as binding are weak or reduced against the parent protein; the word gives no strength. For some of these results: Tags and fused reporters may be left off the sequences shown.

B1: MYC-PMFBP1 (protein, UniProt Q9WVQ0 1-1022)
chain: MLKLKGELRTAKGLKNEAGERDRDVSNLNSKLLSLQLDIKNLHDVCKRQGKTLQENQLCVEEAMLKANHNKKQAQTLVFTDNQMDFRVNKQYHLRQLQQLKKKLLTLQQELEFRTQELQASYCSLLQYQSILEKQTSDLLVLHRHCKLKEDEVILYEEEMGNHSKSTGEKLHLAQEQLALAGDKILSLERSLNLYRDKYQTSLSNIELLECQVKMLEGELSGLIGQDPENKGDHPKVRIYTSPCVIQEHQETLKRLSEVWQKVSEQDDLIQELRNKLACSNSLVLEREEALIKLQAEFASYTATHRHPPTSSEDCEDITKILKHLQEQKDSQCLHVEEYQNLVKDLRMELEAVSEQKKKIMKDMMKLELDLHGLREETSCVIEKKDKETVFLQYRLQDLQQQYTESQKLSLKKDKLLQDKDERLHELEKNLMQVQNSLREKEAELEKLQCTTKELDTSLQEARQSTSKIDCEALRAEIQKLKDSLEEAREQLKVSDQNLTQSKEEAHLSASSLEDAHRKIENCLLQDKQKEEVIKDLQSQLHKLQKESSKIEEERKHNRQRLQELSSELSEGQRRLSNAEKEKSLLQKTLDEDEKKIDELFHSTQVSEQKQRELTNSIRKLEEELLEIKGLLEEKREQLKKSKEQEKALEEEIEALRQEAKRKEKMAKEHLRKLDEEKENLQAELTSRSSHLDSSLNKYNSSQKVIQELNAEIARQKDSIMILQTQLDSAIQKEKNCFQNMVSKEAYEELVRKSGNCQDDLTQALEKLTQATSETKSLNRSLQQTQERKAQLEDEIAAYEERMKKLNMELKKLQGFQQQSEQEVHNFDKKLEEMSNQVLQWQRQHQSDLKMLAAKESQLREFQEEMATLRESLLADEKEPYSPPAKLTPKETCRHHRENDQIMNNVEQWAKEQKIANEKLGNKLREQVKYIAKLTGEKDHLHNVMVHLQQENKKLKNEIEEKKLKAGNPRICVKAFPPNKLEPSQKGKLCCALGWRGIPQDLTPKTDHKYMGLPHSSGSSYC
With B1, the binding result in assay [1] is on record as “no binding”.

B2: MYC-SUN5 (protein, UniProt Q9DA32 1-373)
chain: MPRTRNIGALCTLPEDTTHSGRPRRGVQRSYISRMAEPAPANMNDPLLLPLRMNTPGLSLVQILLGYMSWLTYLACFLRTQTQQVFLNTCRCKLFCQKVMEKMGLLVLCVFGFWMFSMHLPSKVEVWQDDSINGPLQSLRMYQEKVRHHTGEIQDLRGSMNQLIAKLQKMEAISDEQKMAQKIMKMIQGDYIEKPDFALKSIGASIDFEHTSATYNHDKARSYWNWIRLWNYAQPPDVILEPNVTPGNCWAFASDRGQVTIRLAQKVYLSNITLQHIPKTISLSGSPDTAPKDIVIYGLESLPREEVFLGAFQFQPENVIQMFQLQNLPPRSFAAVKVKISSNWGNPRFTCMYRVRVHGSVTPPKDSHLEPLS
For B2, the binding result in assay [1] was “no binding”.

B3: MYC-CENTLEIN (protein, UniProt A2AM05 1-1397)
chain: MAARSPSSSPPPPPVRRSSRRSLRVGRGAEVHAVRSEASGLAGAAREVVADKSDLLWRGEEGSGGRRGSGRAGAAVAPVASAPAGSWWPEGLSSEEAKATRSQLLEEELSSLKEELALCQADKEFVWSLWRRLQATNPDLTQTVSLVVEREKQKSEAKDRKVLEILQVKDSKIQELEQTESVLKQELHDLVKLKTLVDEENAFLRKELCDLQKKFKDKSQEVKDAKECVQSKEEQNRLVIKNLEEENERLRTRCTDLLNDLEKLRNQEAHWRKEKHSVDTRVKVLEENLIEAKKEIESAQTKYNVVSQQLNNKQAELLQKDMDITLIRKELQELQNVYKQNSAHTAQQADLIQQLQALNMDTQKVLRNQEDVHTAESMSYQKLYNELHMCFETTKSNEVMLRQSVVNLQGQLFQKEQENVKLKEKLEESQGTAPSLSPHDSDSSHSGKAPLSTLETLMISQKSEIEYLQKKLKVANEKLMANRSCDQDFSEKGTEGKHKEPPVKRSRSLSPKSSFMGSEELRKLKKAERKIENLEKTLQLKSQENDELRDAHEKRKERLQMLHTNYRAVKEQLKQWEEDSGMAESRQMKRAEPHQLRQEDSDAVWNELAYFKRENQELMVQKMTLQDELDELKMHMSIDKTTIQELNRCMAEKREEQLFRQHEDAEVKKSTPEKNEKAISEETLQKVIELENRLKSFEKNSRKLKEESKRLKKENDFLKSHLKHYQEDSEAREKELEQLLRVSKDVEHDKSELQTKITALETEVTTLRRQVTEAKALRGKDEEVVCPEERAHRPTDKAKSEMATTDVRARRCDCKTATTKVKFKAAKRKCSVGRHHTVLNHSIKVMSHVENLSKDGWEDVSEGSSDSETQTFQNLGTIIVETSQNISPIEDGRNQKEIDQTEGSCAQQRAMQTYSCEDIKAPQSISHNKNTKKMTFQKKSGSLQKSLHSALPARVNREKCKNLPAQKSSSSTISLRERIVSLQQQNSLLQNARRAAEASAKEYKEANEKLLHQQQVSDHRFQTSRQTIKKLTLDLAELRKEKEDLLKKVESSSDIMSLAEEVSRIMAPQIKVTTLGPSRSMDLEMKQLQCKLKNATNELTKQSSNVKSLRMELLAKDDHIKEMHERTSRMERDITMKRHLIEDLKFRQKVNSESNESFNEMLETLEKKVKSLTEECSNKKVSVDSLKQRLNVAVKEKSQYEQMYQKTKEELEKKDLKMSVLISKLNDTETAMAQIETAASEQLQGLALQSEQVLEGAQKKLLSANEKIEEFTVFVKALVNELQSDVHGTRHQIRELKKMQKSRHACKTSTHKAQTLAASILNISRSDLEEILDTEDELEIEKTKIDIENDKEWMLYIQKLLEGQLPFASYLLEAVLEKIKENKKLTEGYFTVMKDTK
Take B3: in assay [1], the binding entry was “no binding”.

B4: FLAG-SPATA6 (protein, UniProt Q3U6K5 18-488)
chain: VTCPGVVLKDKEDIYLSICVFGQYKKTQCVPATFPLVFNARMVFEKVFPEAVDPGDVVAQLEYDTAVFELIQLVPPVGETLSTYDENTRDFMFPGPNQMSGHHDSNRQVTMRRISGLRGIAPKLEFSTTSVITECLISSRKCRTQDKFTYHSAPVEKSHGRLQCRTSRSQKKKSKSPERSKYCINTKNYEQPTISSKSHSPSPYTKRRMCELSEDTRRRLAHLNLGPYEFKKETDKPPFVIRHVDPPSPRTDNFFGSPGRDCERDGWVRMHSDHPHIGCCRSKDYKVIRSPHGRDFEDPFERCEEYLSPRTCSKPQHSARTLLVHSAPSTTPKHCASPVLNRASLRERFHSDWCSPPNCDEIHDRVKDVLKSHQAHARHLCDERDPEREDELELKRSLLYRDSAYDSDPEYSSFQRPRGSFHLDDGECWSNRAASCKGKSHRPVFENSMDKMYRNLYKKACSSVSHTQESF
Turning to B4, in assay [2], the binding entry is on record as “binds”.

B5: SPATA6 (pCAG-SPATA6, in HeLa cells) (protein, UniProt Q3U6K5 18-488)
chain: B4 chain
For B5, the binding entry is listed as “binds” in assay [3] and “no binding” in assay [4].

B6: Spermatogenesis Associated 6 (SPATA6) (protein, UniProt Q3U6K5 18-488)
chain: B4 chain
Regarding B6, the binding entry in assay [5] was “no binding”; in assay [6], “binds”.

B7: SPATA6 (pCAG-SPATA6) (protein, UniProt Q3U6K5 18-488)
chain: B4 chain
Take B7: the binding result in assay [7] and in assay [8] was “binds” in each case.

Source of the values: publication PMC11015022.
